Results reported in paper PMC4336329 (PLoS ONE, 2015).
Hit rate of the full screen: of about 310,000 compounds, about 2,200 (0.71%) showed an effect of 50% or more. Effects have a minus sign here. The list shows a part of the results.

Biological target: human ether-à-go-go-related gene (hERG) potassium channel (human, UniProt Q12809)
Experiment: primary screen, population patch clamp on CHO cells stably expressing hERG

Chain of human ether-à-go-go-related gene (hERG) potassium channel (Q12809 whole entry, looked up): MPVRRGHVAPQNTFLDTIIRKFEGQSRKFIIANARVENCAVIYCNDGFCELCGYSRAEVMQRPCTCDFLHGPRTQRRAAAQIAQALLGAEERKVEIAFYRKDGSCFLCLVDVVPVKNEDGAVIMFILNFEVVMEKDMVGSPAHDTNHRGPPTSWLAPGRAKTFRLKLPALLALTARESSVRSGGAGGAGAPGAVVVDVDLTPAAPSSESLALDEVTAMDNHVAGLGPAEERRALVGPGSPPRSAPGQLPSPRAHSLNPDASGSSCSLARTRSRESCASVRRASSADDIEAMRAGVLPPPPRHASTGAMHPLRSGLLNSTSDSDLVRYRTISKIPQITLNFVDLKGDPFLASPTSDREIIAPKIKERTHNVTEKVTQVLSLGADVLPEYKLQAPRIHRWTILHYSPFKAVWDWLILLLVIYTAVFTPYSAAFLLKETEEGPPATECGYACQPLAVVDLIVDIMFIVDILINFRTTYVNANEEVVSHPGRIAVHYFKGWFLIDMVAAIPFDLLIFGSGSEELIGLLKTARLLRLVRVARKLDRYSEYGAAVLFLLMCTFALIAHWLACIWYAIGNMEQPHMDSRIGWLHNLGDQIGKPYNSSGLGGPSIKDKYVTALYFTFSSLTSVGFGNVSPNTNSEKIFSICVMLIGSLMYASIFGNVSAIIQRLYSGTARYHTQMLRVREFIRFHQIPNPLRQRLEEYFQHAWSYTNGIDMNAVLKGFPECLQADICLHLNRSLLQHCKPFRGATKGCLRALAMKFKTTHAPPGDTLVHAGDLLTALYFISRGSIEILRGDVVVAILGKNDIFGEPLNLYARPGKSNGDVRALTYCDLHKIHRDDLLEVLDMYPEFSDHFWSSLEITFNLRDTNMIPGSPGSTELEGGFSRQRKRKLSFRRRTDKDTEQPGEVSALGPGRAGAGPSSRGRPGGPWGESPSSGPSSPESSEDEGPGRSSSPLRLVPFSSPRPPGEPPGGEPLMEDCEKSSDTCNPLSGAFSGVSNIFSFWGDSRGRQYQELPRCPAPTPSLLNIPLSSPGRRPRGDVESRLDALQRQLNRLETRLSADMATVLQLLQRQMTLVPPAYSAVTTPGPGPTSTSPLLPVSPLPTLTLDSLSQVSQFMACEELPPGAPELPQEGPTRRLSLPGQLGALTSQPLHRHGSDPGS

| SMILES | hERG current change (%, negative = inhibition) at 1uM [%] |
| --- | --- |
| O=C(COC(=O)CCc1nc2ccccc2s1)Nc1ccc(S(=O)(=O)N2CCOCC2)cc1 | 8.92 |
| CNC[C@H](O)c1ccc(O)c(O)c1.O=C(O)C(O)C(O)C(=O)O | 12.2 |
| COc1ccc(NS(=O)(=O)c2cc(NC(=O)/C=C/c3ccccc3OC)ccc2N2CCCCC2)cc1 | 15.5 |
| Oc1ccc[n+](CC(O)c2ccccc2)c1.[Br-] (stereo not drawn) | 9.33 |
| Cc1cc(OCC(=O)NCc2ccncc2)c2c3c(c(=O)oc2c1)CCC3 | 6.31 |
| Cc1ccccc1Nc1nnc(C)c(=O)n1N | 3.3 |
| Brc1cccc(OCCN2CCc3ccccc3C2)c1.Cl | 12.1 |
| COc1cccc(C(=O)Nc2ccc(C(=O)NCC3CCCO3)cc2)c1 (stereo not drawn) | 13.7 |
| O=C(O)c1cccc(C(=O)O)c1Br | 7.89 |
| CC1=C(OC(=O)c2ccccc2)C(C)(C)C(c2ccccc2)OC1=O (stereo not drawn) | -3.15 |
| COc1cc(-c2nnc(-c3ccncc3)o2)ccc1OCc1ccccc1 | 10.8 |
| Cc1ccc(S(=O)(=O)N2CCOCC2)cc1NC(=O)Cn1cc(C(F)(F)F)cc(Cl)c1=O | 12.1 |
| CN(C)S(=O)(=O)c1ccc(Cl)c(NC(=O)COc2ccccc2[N+](=O)[O-])c1 | -3.2 |
| COCc1[nH]nc2c1C(c1ccsc1)C(C#N)=C(N)O2 (stereo not drawn) | 7.89 |
| CC(C)c1nc(NCCO)c(C#N)c2c1CCCC2 | 5.98 |
| COCCNC(=O)c1ccccc1NC(=O)c1ccccc1N(C)S(C)(=O)=O | 12.8 |
| Cn1nc(-c2ccccc2)cc1NC(=O)c1ccc(Cl)cc1 | 5.9 |
| c1ccc(OCCSc2nc3ccccc3[nH]2)cc1 | 13.5 |
| NS(=O)(=O)c1ccc(CCNC(=O)c2cc3ccccc3s2)cc1 | 11.7 |
| COc1ccc(NC(=O)Nc2nnc(C(C)(C)C)s2)cc1 | -0.619 |
| CCOC(=O)N1CCN(S(=O)(=O)c2cc(Br)cc3c2N(C(=O)C2CC2)CC3)CC1 | 6.15 |
| Cc1cc(C(=O)CN2C(=O)c3ccccc3C2=O)c(C)n1C1CC1 | 3.7 |

| SMILES | hERG current change (%, negative = inhibition) at 1uM [%] |
| --- | --- |
| CCOc1nc(SCCOc2ccccc2)nc(N(C)C)n1 | 5.26 |
| COc1ccc(OCC(=O)NC(=S)Nc2ccc(S(=O)(=O)Nc3cc(OC)nc(OC)n3)cc2)cc1 | 5.34 |
| CC12CCC(C(=O)Nc3ccc4c(c3)OCCO4)(OC1=O)C2(C)C (stereo not drawn) | 9.15 |
| Cc1ccc2[nH]c3c(=O)n(CC(=O)NCCCN4CCN(c5ccc(F)cc5)CC4)ncc3c2c1 | 21.6 |
| Cc1ccc(Nc2nc(CSc3n[nH]c(N)n3)cs2)cc1 | 10.6 |
| C/C(CCc1c[nH]c2ccccc12)=N\O | 7.1 |
| COc1ccc(CNC(=O)/C(C#N)=C2\N=C(NC(=O)c3cccs3)c3ccccc32)cc1 | 7.18 |
| Cc1ccc(SC(CC(=O)c2ccc(C)cc2)C(=O)O)cc1 (stereo not drawn) | 9.09 |
| COc1ccc(CN(C(=O)c2ccc(-c3ccccc3)[nH]2)C(C(=O)NCC2CCCO2)c2ccc(C)o2)cc1 (stereo not drawn) | -8.42 |
| COc1ccc(-c2noc(CCCc3ccccc3)n2)cc1OC | 5.83 |
| CCCCOC(=O)CCc1n[nH]c(=O)[nH]c1=O | 0.761 |
| COc1ccc(Nc2nc(-c3cc4cccc(OC)c4oc3=O)cs2)cc1 | 14 |
| O=C(NNC(=O)c1ccco1)c1ccc(NS(=O)(=O)c2cccs2)cc1 | 12.4 |
| O=C(OCC(=O)N(C1CCCCC1)C1CCCCC1)c1ccccc1O | 9.95 |
| O=C(O)c1cccc2c1C(=O)c1ccc(N3CCCCC3)cc1S2(=O)=O | 15.4 |
| COc1ccc(C(=O)NCc2nnc(SCC(=O)Nc3nc4ccccc4s3)o2)cc1 | 12 |
| Cc1cc(C)n(-c2cc(C(=O)O)cc(C(=O)O)c2)n1 | 2.26 |
| COc1ccc(Cl)cc1NCC(=O)Nc1ccc(OC)c(S(=O)(=O)N2CCCCC2)c1 | -1.65 |
| COc1ccc(C(=O)NC(CC(=O)O)c2cc([N+](=O)[O-])ccc2Cl)cc1 (stereo not drawn) | 23.2 |
| COc1ccc(N=Nc2ccc(N)nc2N)cc1 | 14.7 |
| O=C(O)COc1ccc(NC(=O)c2ccc(NC(=O)c3ccco3)cc2)cc1 | 12.7 |
| CCC(=O)NC(C)c1cc(Cl)c2ccccc2c1O (stereo not drawn) | -0.299 |

| SMILES | hERG current change (%, negative = inhibition) at 1uM [%] |
| --- | --- |
| CCOc1ccccc1OCCCC(=O)N1CCN(S(=O)(=O)c2cccc(F)c2)CC1 | 10.4 |
| O=C(c1cc2sccc2n1Cc1ccc(F)cc1)N1CCCc2ccccc21 | 16.2 |
| O=S(=O)(c1ccc(NC2CCCc3ccccc32)nc1)N1CCOCC1 (stereo not drawn) | 7.71 |
| Cc1[nH]nc2c1/C(=N/O)CC(c1ccccc1)C2 (stereo not drawn) | 16.4 |
| CCOC(=O)c1c(N)sc(C(O)(C(F)(F)F)C(F)(F)F)c1-c1ccc(Cl)cc1 | 9.96 |
| C=CCNC(=O)CSc1ncc2c(n1)-c1c(csc1SC)CC2 | 8.84 |
| NNc1nc2c(-c3ccc(Cl)cc3)nnn2c2ccccc12 | 2.6 |
| COc1cccc(/C=N/NC(=O)CCNc2n[nH]c(=O)[nH]c2=O)c1OC | 14.8 |
| CCCC(C)n1[nH]c(=O)c2c1NC(=O)CSC2c1ccccc1 (stereo not drawn) | 4.11 |
| CCn1nc(C(=O)Nc2nc(-c3ccccn3)cs2)c2ccccc2c1=O | 9 |
| O=c1cc(CSc2nnc3ccccn23)c2c(ccc3ccccc32)o1 | 0.0307 |
| CCN(CC)c1ccc(N=Cc2c(O)n(-c3cc(OC)ccc3OC)c(=O)[nH]c2=O)cc1 | 20.9 |
| CC(C)(C)NC(=O)C(=O)NNC(=O)c1ccccc1 | 12.4 |
| Cc1cccn2c(=O)c3cc(C(=O)NCCN4CCOCC4)c(=N)n(CCc4ccccc4)c3nc12 | -71.8 |
| CCc1nnc(NC(=O)c2ccc(S(C)(=O)=O)cc2)s1 | 6.81 |
| COc1ccc2[nH]c(=O)c(CN(C(=O)c3cccnc3)c3ccc(C)c(C)c3)cc2c1 | 16.6 |
| c1ccc(Nc2nc(-c3ccccc3)ns2)cc1 | 14.4 |
| COc1cccc(NC(=O)CN2C(=O)CSc3ccc(S(=O)(=O)N4CCCCC4)cc32)c1 | 8.56 |
| Cc1cc(C)cc(N=c2c([N+](=O)[O-])nn(-c3ccc4c(c3)OCCO4)n2O)c1 | -4.52 |
| CC(=O)[C@@H]1[C@@H](C(=O)c2ccc(F)cc2)[C@]2(C(=O)Nc3ccccc32)[C@H]2C=Cc3cc(F)ccc3N12 | 8.22 |
| CCN(CC)CCN(Cc1cc2cc3c(cc2[nH]c1=O)OCO3)C(=S)NC | 11.1 |
| O=C(CSc1nnc2ccccn12)N1CCc2ccccc21 | 2.08 |

| SMILES | hERG current change (%, negative = inhibition) at 1uM [%] |
| --- | --- |
| COc1cccc(C(=O)/C=C/Nc2ccc(S(=O)(=O)Nc3onc(C)c3C)cc2)c1 | 13.7 |
| O=C(COC(=O)c1cccs1)Nc1nnc(-c2ccccc2)o1 | 6 |
| O=C(Nc1cccc(-c2nc3ccccc3s2)c1)c1cc(=O)c2ccccc2o1 | 15.5 |
| COC(=O)c1sc2nc(C)cc(C)c2c1N | 10.9 |
| CC(C)CN(C(=O)COC(=O)C1=COCCO1)c1c(N)n(Cc2ccccc2)c(=O)[nH]c1=O | 19.6 |
| COc1ccc(CN2CCN(C(=O)c3ccc(CNS(=O)(=O)c4ccc(C)cc4)cc3)CC2)c(OC)c1OC | 17.4 |
| CCCn1c(N)c(C(=O)COC(=O)CCS(=O)(=O)c2ccc(C)cc2)c(=O)[nH]c1=O | 13.7 |
| COc1ccc(Br)cc1CNC(=O)CCN1C(=O)COc2ccccc21 | 6.61 |
| COc1ccccc1Nc1ncccc1[N+](=O)[O-] | 23.5 |
| CCc1ccc(C(=O)Nc2ccc(S(=O)(=O)Nc3nc(C)cc(C)n3)cc2)o1 | 12.3 |
| CS(=O)(=O)NNC(=O)CN1C(=O)C2C3C=CC(C3)C2C1=O (stereo not drawn) | 22.9 |
| CCOC(=O)NC(Nc1nnc(C)s1)(C(=O)OCC)C(F)(F)F (stereo not drawn) | 11 |
| Cc1ccc(Cl)c(NC(=O)COC(=O)C2CCC2)c1Cl | 25.3 |
| COC(=O)C1CCCN1C(=O)C12CC3CC(CC(C3)C1)C2 (stereo not drawn) | 13.8 |
| CN(C(=O)Cn1cnc2ccccc2c1=O)C1CCS(=O)(=O)C1 (stereo not drawn) | 0.575 |
| COc1ccc(C(O)(CCN2CCCCC2)C2CCCCC2)cc1.Cl (stereo not drawn) | 12.9 |
| Cc1cccc(C)c1NC(=O)c1ccc(CN2CCc3ccccc3C2)cc1 | 9.59 |
| CCC(C)N(C(=O)c1csnn1)C(C(=O)NC1CCCC1)c1c(F)cccc1Cl (stereo not drawn) | 14.2 |
| O=C(CCNc1cccc(F)c1)c1cccc([N+](=O)[O-])c1 | 16.6 |
| CCCn1nnc(NC(=O)C(C)Oc2ccc(Cl)cc2Cl)n1 (stereo not drawn) | 7.8 |
| O=C(Nc1c2c(nn1-c1ccc([N+](=O)[O-])cc1)CS(=O)(=O)C2)c1ccco1 | -24.1 |
